# In all, about 33,000 sequences were measured (“E-score (-0.5 to 0.5)”: median about -0.056, highest 2% from about 0.38 on). The list shows a part of the results.
# Molecular target: Stb4 (UniProt P50104)
# Assay: PBM E-score (8-mer binding enrichment) (E-score (-0.5 to 0.5)); higher = stronger / more preferred TF binding; most listed sequences are background and not binding sites
# Conditions: protein concentration: 200 nM; construct: GST-DNA-binding domain
# How it was run: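 E-scores (a modified Wilcoxon-Mann-Whitney statistic) were assigned by the Universal PBM Analysis Suite to every ungapped eight-base word pooled with its reverse complement. The input came from universal all-10-mer Agilent arrays made double-stranded by primer extension and probed with GST-tagged yeast transcription factors at about 100-200 nM. Fluorescent anti-GST detected bound protein, and masliner normalised the scans.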
row,Sequence,PBM E-score
1,GAGGCTGC,-0.0871
2,CGAGCCCC,0.109
3,AACCGTGC,0.105
4,ACATTCTA,-0.187
5,CCAATAGA,-0.222
6,CGATACCA,-0.0346
7,GGGTATAA,0.145
8,CTGACTAA,-0.137
9,CGGTAGCC,0.178
10,GAAGAATC,0.251
11,CTGTATCA,-0.213
12,ATTGTTGG,0.00265
13,AGTGGGAA,0.077
14,CACTCTGA,-0.114
15,CAGTTCGA,-0.262
16,CATCTGGA,0.0219
17,CCGGCGTA,0.138
18,CCTTCGAG,-0.13
19,GATTTTTA,0.097
20,GATAGCCC,0.0264
21,AACGTGCA,-0.184
22,AGCACTAG,-0.1
23,GCAGATAC,0.105
24,CTGATATA,0.0665
25,GTTCATCA,-0.158

row,Sequence,PBM E-score
1,ACGACTCT,-0.22
2,CGATCACC,0.017
3,CTGCGAAA,-0.152
4,AGCTGACT,-0.141
5,CTGTAGTA,-0.0968
6,GAACTGCC,0.148
7,ATGGAGTC,0.116
8,GACCGATA,0.0851
9,ATCTGCGA,-0.265
10,CCCGATCG,0.363
11,ACGCAACT,-0.0227
12,CTTGGATC,-0.0751
13,CGGTGGAA,0.06
14,AGGGAAAG,-0.198
15,GAAGATAA,0.151
16,AACTTAAG,-0.117
17,CAAGTCAG,-0.185
18,CACATTAG,-0.195
19,ATTGCTAA,-0.204
20,CGGAACTA,0.449
21,GGATATCC,0.299
22,AGACGACT,-0.0964
23,GAATATCC,0.244
24,AGGGAGGA,-0.265
25,ACTGTGGA,-0.345

row,Sequence,PBM E-score
1,GATCCGCC,0.273
2,CGCCTGAC,-0.0857
3,GTCGAGCA,-0.295
4,ATTCCCTG,0.0358
5,GTAGCTAC,-0.122
6,AGCAGTAG,-0.261
7,CCGCCTAG,0.00339
8,AATGGTCC,0.165
9,AGACCAGA,-0.278
10,AAGCGCAA,0.0625
11,CTGGGTCC,-0.0588
12,CCATGTCC,0.0121
13,GGCCGCAA,-0.0791
14,CGAACGTA,0.0822
15,AATGTCGT,-0.0403
16,ACGGACCC,0.0961
17,GCGAACCC,-0.00826
18,AGAAAACT,-0.226
19,ACGTAAAT,-0.00272
20,AGAGACAC,-0.157
21,CGTTAGAA,-0.0347
22,ACTTCCTA,-0.113
23,AGCGCGTC,-0.202
24,ACACTAAA,-0.0159
25,GCAGCACC,-0.0822

row,Sequence,PBM E-score
1,CGGGTGCA,0.292
2,GTAACTAA,0.0906
3,CCCCTGCA,-0.158
4,GACATCAC,-0.0606
5,CAGTGGGC,-0.26
6,CAATGGCC,-0.0728
7,AATGACTC,-0.219
8,AATGACAG,-0.215
9,GACTTGCC,-0.036
10,ACAAGAGA,-0.0935
11,ATACATTC,-0.0959
12,CTAGGCAA,-0.0033
13,CATCACGA,-0.285
14,CTCTGTCC,-0.153
15,CATATTGA,-0.233
16,AGCCCGGA,0.361
17,CATTGGAG,-0.153
18,CAAACGCA,-0.159
19,CGGTGCTA,0.103
20,CATCTAAC,-0.0907
21,ACCTACGT,0.036
22,CAACCCTG,-0.0278
23,CTACGAAG,-0.247
24,GGGACTTA,-0.0226
25,CATGCACA,-0.169

row,Sequence,PBM E-score
1,GCGCATGA,-0.204
2,ATCGCACA,-0.278
3,AACGTGGG,-0.177
4,CAATGTTC,0.0672
5,AGCATCCG,0.419
6,ATGCTCTG,-0.198
7,CCTCTCGA,-0.276
8,ACGGCGCC,-0.0157
9,GGATTGTA,0.11
10,CAACAAGC,-0.117
11,ATATAGGC,0.0799
12,ACCGAAAA,0.337
13,GGGGCTAA,-0.138
14,GGGTGCTA,0.0706
15,AACCTTAA,0.0731
16,AAAGTCTC,-0.187
17,GCAATTGC,0.0399
18,TGATTTAA,0.0668
19,CCACGTGA,-0.206
20,ACAGCGAG,-0.115
21,CCTGTATA,-0.136
22,ACATTAAA,-0.0486
23,CCTATTTC,-0.0481
24,CGTACTCC,0.1
25,GAGACGTA,-0.098

row,Sequence,PBM E-score
1,TCTGAGCA,-0.215
2,ACCCTATC,-0.0313
3,ATTTGGAG,0.0481
4,CGACAGGA,0.0828
5,AAGCTTAG,-0.14
6,ACCGATCG,0.187
7,AGTCATAT,-0.0966
8,GTCAGCCA,-0.262
9,ACACTACC,0.012
10,AGTGCTAA,0.0406
11,TACCTCCA,-0.282
12,GCGCGGTA,0.148
13,AGGGATTG,-0.135
14,CCCCTACG,-0.192
15,CCAGCTTC,0.00389
16,CGCACTAC,-0.0218
17,CAAGGATA,-0.0878
18,ACCACTTG,-0.124
19,CACGGTAG,-0.033
20,GTCGTTAA,-0.0489
21,AGCCCCTC,-0.029
22,CCCAAAAC,-0.137
23,CATTATGA,-0.136
24,CACTAGTG,-0.167
25,AGACGGGG,0.101

row,Sequence,PBM E-score
1,CTGAATAA,-0.0285
2,TAATTATA,0.124
3,GGCGAAGA,-0.0368
4,GAGTATGA,0.125
5,ACTATTGA,-0.145
6,TCCGATAA,0.366
7,AGTGGATA,0.044
8,GACGGATA,0.385
9,ATCGCTTA,-0.262
10,TGCACTAA,-0.112
11,CGGGGGAG,0.113
12,AGATTCGG,0.378
13,AGCACATC,0.0597
14,CGAAATAG,0.0973
15,CTCGAAGC,-0.132
16,ACAAGACC,0.073
17,AAGTAGAA,-0.165
18,ACCAGGAG,-0.119
19,TCTGCGCA,-0.089
20,CTCATAAG,-0.202
21,AGAGGTAC,-0.0427
22,CATCCCCC,-0.102
